Reference: the supplement of paper PMC3334620
The full ranking holds about 33,000 sequences; the median of “E-score (-0.5 to 0.5)” is about -0.04, and the highest 2% start at about 0.36. The list shows a part of the results.

What follows are sequences tested against T1, Hmlalpha2 (UniProt P0CY09) (assay: PBM E-score (8-mer binding enrichment) (E-score (-0.5 to 0.5)); higher = stronger / more preferred TF binding; most listed sequences are background and not binding sites). Conditions: protein concentration: 200 nM; construct: GST-full length.
T1 sequence: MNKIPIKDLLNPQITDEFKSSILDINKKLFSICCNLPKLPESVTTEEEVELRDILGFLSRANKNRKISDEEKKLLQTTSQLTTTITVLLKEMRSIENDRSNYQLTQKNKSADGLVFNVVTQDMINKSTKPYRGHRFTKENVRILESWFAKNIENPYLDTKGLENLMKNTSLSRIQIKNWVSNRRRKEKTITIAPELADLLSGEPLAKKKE
Method: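 Universal 'all 10-mer' protein binding microarrays (Agilent AMADID 015681) probed with GST-tagged S. cerevisiae TFs (full-length or DBD) made by in vitro transcription/translation (PURExpress), about 100-200 nM. Bound TF was detected with fluorescent anti-GST. Each ungapped 8-mer (which stands for itself and its reverse complement) is scored by the PBM enrichment score (E-score), a modified Wilcoxon-Mann-Whitney statistic from -0.5 to +0.5, computed with the Universal PBM Analysis Suite. Scale: above 0.35 generally sequence-specific binding.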

Sequence | PBM E-score
AATAACAC | 0.396
CCACCAAG | -0.31
ACATCAAC | 0.255
AAACCCAG | 0.025
CCAAAGTA | -0.0127
AGGCTGAG | -0.172
ACATCAAT | 0.273
CAAACCAC | -0.0658
GAAGTTAA | 0.227
CGACAAGC | 0.1
CAACATCC | 0.0197
CGCTGTGC | -0.0825
CCGGGAGC | -0.408
AGGGACCT | -0.163
ATGATCTG | 0.0563
AAATACAT | 0.441
ACAACTGC | 0.0498
AGGACAAT | -0.107
GATAGCAA | 0.0619
ATGCATTA | 0.2
ACTGAGCC | -0.127
CCGTTATA | 0.174
ACACAGAG | 0.302
GAGTCAGA | -0.16
ACTAACAG | 0.0571

Sequence | PBM E-score
AACTCCGA | -0.114
AGTGTTAA | 0.374
AAAAACGG | -0.0735
CCAATTAA | 0.0839
CTGTAGAA | 0.161
AGAGGAAA | -0.0215
CAATAAAA | 0.0694
CCGGCTGC | 0.0149
AATCTCTG | -0.082
CTGATGGA | -0.268
AAAAGGCC | -0.176
AGAGAGAA | -0.107
AGTCTGAA | -0.114
ACGCCTTG | -0.0206
AAAGCTTT | 0.0499
ATAGTCTC | 0.069
ACAGCCCG | -0.177
AAAACAGT | 0.00087
AGTACGGA | -0.11
ACTCAGAC | 0.0463
GCAGATTA | -0.00685
CAGTGCCG | -0.109
AATTATTC | 0.14
CGGGGTAG | -0.318
ACCACCAC | -0.0208

Sequence | PBM E-score
AGCTAAGG | -0.0419
AGAAATTC | -0.123
AAATCGCA | -0.186
CGCTGCCC | -0.166
CCTTGTGA | 0.0902
CGGTTTCA | 0.0015
CAAGGTGG | 0.0166
CACAACGA | 0.166
GAGGCCTA | -0.23
AGGGCGCA | -0.164
CTGAGCGA | -0.0535
ATGGAGGA | 0.0206
CAGGGTCA | -0.169
CACGTATC | 0.101
ACAATCCG | 0.0885
GGTAAAAC | 0.215
CAAACCTG | 0.0013
GGAGAACA | 0.0647
CTAGCAAG | -0.133
CAGAGAGA | -0.126
GAAGGAGA | 0.0569
ATAACTGG | -0.197
AAATCCAA | 0.0423
ACGGTTCA | -0.211
GAGTTACC | 0.0792

Sequence | PBM E-score
ACGGGCTC | -0.274
GAACCGTC | -0.191
AGAGATCT | -0.139
AGGCACAA | -0.038
GCACCAAC | -0.0323
GCGCGACA | 0.0127
CAGAGCTC | -0.142
CCCCACTA | -0.194
CAGCATAC | -0.0768
GGGAATGA | -0.21
GAGGTGCC | -0.244
ATCTATTG | -0.0525
TACGACTA | 0.0552
GCCACTTA | -0.0823
AGACGCGG | 0.0088
TAGATGAA | 0.186
CCCGCAAC | 0.0639
CGGTGGCC | -0.24
ACGCTAGT | 0.0303
GAGGCTAA | -0.098
CGGCAGGA | -0.345
AAAAACTG | -0.104
CAACCTCA | -0.0212
CGGAAGAA | -0.0588
GCCCTTGA | -0.127

Sequence | PBM E-score
CTACTGCC | -0.334
TACGAACA | 0.248
AAGGTGAG | -0.203
AAGCCTCT | -0.29
AAGCTGCA | 0.0105
CAAATTGA | -0.017
CACGGTTC | 0.156
CCGAATTA | 0.0154
AAGCACCC | -0.201
GCGCAGTA | -0.147
TTGTTAAA | 0.359
CATAATCC | -0.0874
AGAACAGG | 0.0558
ATATCTTC | -0.0479
GAATGGGA | -0.228
CTTGCCCC | -0.317
ACTACGTC | 0.0817
GATCGTCC | -0.228
ACATCTGC | 0.0406
GGTGTCGA | -0.0862
CTGAGGAC | -0.24
AAATATGA | 0.0694
ATCGAACG | -0.0528
ACCTACCT | -0.0969
ATGACGCC | -0.105

Sequence | PBM E-score
ACCAGATC | -0.114
ATAATCAT | 0.205
CATGACCA | 0.0558
CCCGTGCG | -0.0484
GGCTAGCA | -0.22
AACATATG | 0.326
ACATAGTA | 0.356
AACTTAAT | 0.221
CCAATCAA | -0.0111
AGGGTAAA | 0.0323
CTATGCGA | -0.121
CCTTGAGA | -0.0513
CCAGTATC | -0.296
AAGGAAAA | 0.0876
AGGGCAAT | -0.29
AAGGCGGC | -0.162
ACAACGCG | 0.253
GAGTGTAA | 0.295
GAGCTCGC | -0.141
CGATCCTA | -0.14
AGGGAACC | -0.134
ATATCCAG | -0.0481
CCCACTTC | -0.22
GGGTACGA | -0.195
ATCTACAT | 0.452

Sequence | PBM E-score
ATAGGGAG | -0.233
ATAATCCA | 0.0175
AAACATAA | 0.348
CCGGTCGA | -0.373
TAAACATA | 0.416
GCACCGGC | -0.182
TACAAGTA | 0.322
CGTGCCGA | -0.085
ATCCTACG | -0.115
AGGGCGTA | 0.0328
CGGTAGGA | -0.218
AGGGATAA | 0.0832
GACCCTGC | -0.287
ATTCACGA | 0.149
GCCGCCGA | -0.109
ATTTGTTG | 0.206
ACTAGTCT | 0.039
AGGCAAAG | -0.132
AATGGAGA | -0.187
ATTGCAAA | 0.102
CGTAAGTC | 0.0646
ACCATTCG | 0.0719
